SMILES strings stand for the structures. In all, about 110,000 compounds were measured (“z-score”: median about -0.1, highest 2% from about 2 on). This is one part of the list. Active and inactive are the calls of the source.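 Rule for the calls: active = z-score in the third read window above 3 or below -3; inactive = the rest.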

This assay deals with Metabotropic glutamate receptor 8 (Rattus norvegicus) (UniProt P70579). Nature of the assay: rat mGluR8 modulators via GIRK flux, primary screen, cell-based, thallium flux, HTS (AID 488969). As to conditions: HEK293 rat mGluR8, GIRK (G protein-gated inwardly rectifying potassium channel) thallium flux, FluoZin2; at 10 µM; stronger effect = higher value; submaximal glutamate (EC20) added with thallium.
Sequence of UniProt P70579 (P70579 whole entry, looked up): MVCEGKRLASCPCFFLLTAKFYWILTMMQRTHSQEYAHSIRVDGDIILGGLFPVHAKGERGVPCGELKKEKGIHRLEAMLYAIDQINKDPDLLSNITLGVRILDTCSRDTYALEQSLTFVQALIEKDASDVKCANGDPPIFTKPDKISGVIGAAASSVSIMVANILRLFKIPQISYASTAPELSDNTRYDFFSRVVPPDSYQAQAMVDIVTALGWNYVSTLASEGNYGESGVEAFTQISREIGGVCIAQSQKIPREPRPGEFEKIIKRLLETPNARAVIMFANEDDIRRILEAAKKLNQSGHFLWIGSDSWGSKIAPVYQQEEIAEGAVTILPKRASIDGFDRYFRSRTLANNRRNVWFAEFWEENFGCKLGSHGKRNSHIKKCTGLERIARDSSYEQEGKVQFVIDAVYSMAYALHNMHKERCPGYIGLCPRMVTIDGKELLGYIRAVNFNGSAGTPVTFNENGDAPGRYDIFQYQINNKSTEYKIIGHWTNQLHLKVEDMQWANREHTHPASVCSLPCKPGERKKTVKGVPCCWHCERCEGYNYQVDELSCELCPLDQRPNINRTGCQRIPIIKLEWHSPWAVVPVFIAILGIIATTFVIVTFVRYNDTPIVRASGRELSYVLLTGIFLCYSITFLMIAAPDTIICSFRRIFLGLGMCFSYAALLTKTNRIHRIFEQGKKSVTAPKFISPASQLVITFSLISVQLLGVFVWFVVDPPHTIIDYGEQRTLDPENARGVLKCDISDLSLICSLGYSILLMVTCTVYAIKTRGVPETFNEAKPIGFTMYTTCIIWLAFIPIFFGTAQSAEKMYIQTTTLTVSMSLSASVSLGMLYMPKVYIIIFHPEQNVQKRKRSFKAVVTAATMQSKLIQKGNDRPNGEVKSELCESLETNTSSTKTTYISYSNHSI
`CC12CCC(C(=O)n3c1nc1ccccc13)C2(C)C` (stereo unspecified) returned a z-score of -1.56.
`O=C(COc1ncnc2ccccc12)NCc1ccc2c(c1)OCO2` showed a z-score of 0.256.
The figure for `C/C(=N\NC(=O)COc1ccc(C(C)(C)C)cc1)c1ccc(N2CCOCC2)cc1` is -0.104; for `O=C(c1ccccc1)c1nn(-c2ccccc2)c(=O)cc1C(F)(F)F` it is -0.379; for `CC(=O)c1ccc(NC(=S)NC(NC(=O)c2ccco2)C(Cl)(Cl)Cl)cc1` (stereo unspecified) it is 0.179.
The value for `CCCCCCCC(=O)NN1CCOCC1` was 0.0256; that for `N#Cc1c2n(cnc1=O)CCCCC2` was 0.382; that for `CCC(=O)NC1=C(NC(C)c2ccccc2)C(=O)c2ccccc2C1=O` (stereo unspecified) was -0.128.
Consider `Cn1c(=O)[nH]c(=O)c2c1nc(NCc1ccco1)n2CCCc1ccccc1`, for which the z-score is -0.11.
For the molecule `CCN1C(=O)CC(N2CCN(C(c3ccccc3)c3ccccc3)CC2)C1=O` (stereo unspecified), the z-score is -0.246.
Molecule `O=C(O)c1ccc(CS(=O)c2cccc(C(F)(F)F)c2)o1` (stereo unspecified) yielded a z-score of 0.152.
The value for `CC1(C)C(=O)OC(c2cccn2-c2ccc([N+](=O)[O-])cc2)C(C)(C)C1=O` (stereo unspecified) was -0.471.
With `COc1ccccc1CNC(=O)COC(=O)c1cc(-c2ccco2)nc2ccccc12`, the z-score came to 0.528.
In the case of `O=C(c1cc(-c2ccco2)on1)N1CCc2ccccc2C1`, the z-score is -0.364.
Molecule `COC(=O)c1ccc(CSc2nc3ccccc3c(=O)n2Cc2ccco2)o1` gave a z-score of -0.977.
Molecule `CCOC(=O)c1c(-c2ccc(F)cc2)cn2ccccc12` returned a z-score of -0.00825.
Consider `CC1=C(C#N)C2C(/C1=N/O)C2(C)C` (stereo unspecified), for which the z-score was -0.347.
The molecule `CCc1nccn1C(=O)c1cnn2c(C(F)F)cc(-c3ccc(C)cc3)nc12` yielded a z-score of -0.0768.
The figure for `COc1ccc(/C=N/n2cnnc2SCCO)cc1OC` is 1.38; for `CC(C)(C)c1ccc(Cn2ccc(-c3ccc4c(c3)OCO4)n2)cc1` it is 0.161; for `O=C1/C(=C/N(C(=O)c2ccco2)c2ccc(Br)cc2)Sc2ccccc21` it is 0.116.
As to `O=Nc1c(O)n(Cc2ccc(Cl)cc2Cl)c2ccccc12`, the z-score is -0.436.
The molecule `COc1ccc(N(C(=O)CSCC(=O)Nc2cc(C)on2)C(C(=O)NC2CCCCC2)c2ccc(O)c(O)c2)cc1` (stereo unspecified) displayed a z-score of -0.354.
As for `O=C(C1CCCO1)N1CCN(C(=S)Nc2ccccc2F)CC1` (stereo unspecified), the z-score is -0.183.
Molecule `CCS(=O)(=O)N1Cc2ccccc2CC1C(=O)N1CCN(c2ccccc2)CC1` (stereo unspecified) registered a z-score of -0.0819.
The value for `CN1CCN(S(=O)(=O)c2ccc(NC(=S)NC(=O)c3ccc(Cl)cc3)cc2)CC1` was 0.183; that for `O=C(c1ccc(-c2nnc(Nc3ccccc3)c3ccccc23)cc1)N1C[C@H]2C[C@H](C1)c1cccc(=O)n1C2` was -0.314.
In the case of `C=CCN1C(=O)/C(=C2/Sc3ccccc3N2C)SC1=Nc1c(C)n[nH]c1C`, the z-score is active: 3.97.
The figure for `Cc1cccc(C(=O)NC(=S)NNC(=O)c2cccs2)c1` is active: 5.42; for `COc1cc(C2=NOC(C(=O)NCc3ccco3)C2)cc(OC)c1OC` (stereo unspecified) it is 0.0251; for `CC(C(=O)Nc1cccnc1)N1C(=O)c2ccccc2C1=O` (stereo unspecified) it is -0.0959.
The value for `CCc1cccc(OCCCCNCCCOC)c1` was 0.0451.
`C=CCn1c(N)c(C(=O)NCC2CCCO2)c2nc3ccccc3nc21` (stereo unspecified): the z-score was -2.15.
The figure for `O=C(NC(=S)Nc1ccccc1N1CCCCC1)c1ccco1` is active: 5.87; for `COc1ccccc1-n1c(SCC(N)=O)nnc1-c1ccc(S(=O)(=O)N2CCCCC2)cc1` it is -1.6.
The figure for `COc1ccc([N+](=O)[O-])cc1N(CC(=O)NCC1CCCO1)S(C)(=O)=O` (stereo unspecified) is -0.312; for `O=C(CC(c1ccccc1)c1cc(Br)ccc1O)NCCN1CCOCC1` (stereo unspecified) it is -0.0663; for `O=C(Nc1ccc(Cl)cc1)N1CCCC1` it is -0.318.
The figure for `NC(=O)CSC1=Nc2ccccc2C2=NC(CCC(=O)NCc3ccc(F)cc3)C(=O)N12` (stereo unspecified) is 0.0977; for `CCc1ccc(N2CC(C(=O)Nc3cc(C)ccc3F)CC2=O)cc1` (stereo unspecified) it is -0.82.
On to `O=C(NCCc1ccc(Cl)cc1)C1CC(=O)N(C2CCCCC2)C1` (stereo unspecified), for which the z-score stood at 0.179.
In turn, `CC(C)(C)n1nc2c(c1NC(=O)c1ccco1)CS(=O)C2` (stereo unspecified) had a z-score of 0.0777.
The figure for `CCCCNC(=S)Nc1ccc([N+](=O)[O-])cc1` is 2.
Consider `O=[N+]([O-])c1ccccc1-c1nc(-c2ccc(Br)o2)no1`, for which the z-score was -0.0756.
For the molecule `O=C1CC(N(O)c2ccccc2)C(=O)N1c1cc(Cl)cc(Cl)c1` (stereo unspecified), the z-score was -0.788.
The value for `CC(=O)Nc1cccc(-c2csc(Nc3ccccn3)n2)c1` was -0.112; that for `COc1cc(C(C)=O)ccc1COc1ccc(C(=O)OCC(=O)NC(C)(C)C)cc1OC` was -0.573; that for `CC(=O)c1cc(C#N)c(SCc2ccccc2C#N)nc1C` was 0.092.
The value for `Cc1cc(C)c(C2=NOC3C4CCC(C4)C23)c(C)c1` (stereo unspecified) was -0.0502.
The figure for `CCN=C1SC(C(=O)Nc2ccccc2)CC(=O)N1CC` (stereo unspecified) is 0.0876.
The molecule `CN1C(=O)CC(n2c(CO)nc3ccccc32)C1=O` (stereo unspecified) returned a z-score of 0.113.
The figure for `O=C(CC(c1ccccc1)c1ccccc1)OCn1nnc2ccccc2c1=O` is 0.00482; for `COc1cc(NC(=S)Nc2ccc(Br)cc2Cl)c(OC)cc1Cl` it is 1.2; for `Cc1sc(NC(=O)c2ccccc2)c(C#N)c1-c1ccccc1` it is 0.642.
The figure for `O=c1[nH]c(CSc2nnc(-c3ccncc3)n2Cc2ccco2)nc2ccccc12` is 0.12.
In turn, `CCOc1ccc(NC(=O)CN(c2ccc(OC)cc2)S(C)(=O)=O)cc1` gave a z-score of -0.128.
The figure for `CCOc1cccc(-c2nn3c(-c4ccco4)nnc3s2)c1` is -2.8.
The figure for `CCc1nccn1S(=O)(=O)c1ccc(OC)c(C)c1C` is -0.0989; for `Cc1occc1C(=O)NC1CCCc2ccccc21` (stereo unspecified) it is -0.0364; for `CCOC(=O)c1ccc(Oc2c(C)oc3cc(OS(C)(=O)=O)ccc3c2=O)cc1` it is -0.214.
`CC12CC(NC(=O)N1c1cccc(C(=O)N3CCN(c4ccccn4)CC3)c1)c1ccccc1O2` (stereo unspecified) had a z-score of -0.723.
The figure for `CCCCNC(=O)c1onc(CSc2cc(C)ccc2C)c1C(=O)O` is -0.194.
The figure for `COC(=O)c1nnn(CC(=O)Nc2ccc(C)c(F)c2)c1C(=O)OC` is 0.151; for `CCOC(=O)c1cccc(-n2c(C)cc(C=O)c2C)c1` it is -2.64.
In the case of `CC(C)OCCCNC(=O)CN1C(=O)/C(=C/c2ccccc2)Sc2ccccc21`, the z-score is -0.569.
The value for `CCOC(=O)c1ccc(NC(=O)Nc2cc(C)on2)cc1` was -0.524; that for `Cc1cc(Sc2nccn2C)ncc1[N+](=O)[O-]` was -0.3.
The molecule `Cc1ccc(N2CCN(/N=C/c3cccs3)CC2)cc1` showed a z-score of -0.187.
The value for `Cc1nnc(-c2ccccc2)nc1N1CCOCC1` was -0.169.
The figure for `CCN(CCCNC(=O)C1CCN(S(=O)(=O)c2c(C)[nH]c(=O)[nH]c2=O)CC1)c1cccc(C)c1` is -0.377; for `Cn1c(SCC(=O)N(Cc2ccccc2)C(C)(C)C)nc2ccccc21` it is -0.559.

The record behind these values is PubChem BioAssay AID488969 (Vanderbilt High Throughput Screening Facility, 2010).
